Results published in US5270344A, “Method of treating a systemic disorder using trioxolane and diperoxide compounds” (priority 1992, dated 1993).

Test system: yeast infections of the vagina
Conditions: suppository every 24 hours; within 7 days for Example 3

Clc1ccccc1C(c1ccccc1)(c1ccccc1)n1ccnc1 [clotrimazole]
Yeast culture / yeast assay: a yeast assay is negative
